In patent US20120253017A1 (published 2012):

Key:
[1] = target: cKIT-H6 (His tagged), MSD assay; experiment: MSD bridging assay, cKIT-H6 coated, vMLC1-sulfotag detection, top standard concentration
[2] = target: cKIT-H6 (His tagged), MSD assay; experiment: MSD bridging assay, cKIT-H6 coated, vMLC1-sulfotag detection, 10% mouse serum
[3] = target: T1, human c-kit (recombinant, on BIAcore chip or beads) (human, UniProt P10721 partial chain); experiment: BIAcore, bivalent model, bad fit
T1 construct: extracellular domain; also called hcKIT; biotinylated human c-kit

[4] = target: T2, rat cKIT ECD (rat, UniProt Q63116 25-526); experiment: BIAcore, bivalent model
T2 construct: cloned into pDOM38, which provides a human IgG1 Fc; also called rcKIT; rckit; not shown: Human IgG1 Fc (and any linker) supplied by vector pDOM38

[5] = target: Myosin Light Chain (on streptavidin chip; vMLC1-sulfotag); experiment: BIAcore, bivalent model
[6] = target: T1, human c-kit (recombinant, on BIAcore …); experiment: BIAcore
[7] = target: T1, human c-kit (recombinant, on BIAcore …); experiment: BIAcore; remark: listed apart in the source
[8] = target: T2, rat cKIT ECD; experiment: BIAcore
[9] = target: Myosin Light Chain (on streptavidin chip; vMLC1-sulfotag); experiment: BIAcore

T1 sequence (P10721 26-524): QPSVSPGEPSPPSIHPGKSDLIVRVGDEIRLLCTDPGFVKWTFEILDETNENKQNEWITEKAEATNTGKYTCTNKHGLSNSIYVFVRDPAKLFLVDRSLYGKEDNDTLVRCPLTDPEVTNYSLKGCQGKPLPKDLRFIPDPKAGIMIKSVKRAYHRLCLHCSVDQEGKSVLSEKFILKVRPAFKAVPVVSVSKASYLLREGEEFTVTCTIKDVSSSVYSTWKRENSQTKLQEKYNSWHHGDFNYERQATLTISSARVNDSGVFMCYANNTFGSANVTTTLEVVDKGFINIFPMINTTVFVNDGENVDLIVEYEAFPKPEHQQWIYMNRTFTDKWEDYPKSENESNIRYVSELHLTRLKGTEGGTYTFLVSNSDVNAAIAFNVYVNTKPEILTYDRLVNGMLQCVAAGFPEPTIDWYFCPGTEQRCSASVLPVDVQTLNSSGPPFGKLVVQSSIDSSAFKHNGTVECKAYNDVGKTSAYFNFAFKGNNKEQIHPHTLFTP
Sequence of Myosin Light Chain (on streptavidin chip; vMLC1-sulfotag) (chain, as listed by the source): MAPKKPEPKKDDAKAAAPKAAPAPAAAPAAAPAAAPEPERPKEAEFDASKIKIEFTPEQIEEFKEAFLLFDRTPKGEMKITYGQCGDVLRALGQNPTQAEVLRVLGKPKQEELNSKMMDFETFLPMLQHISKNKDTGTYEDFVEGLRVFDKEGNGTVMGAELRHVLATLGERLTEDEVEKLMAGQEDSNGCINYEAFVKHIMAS
T2 sequence (Q63116 entry or part of it limits assumed, form in doubt): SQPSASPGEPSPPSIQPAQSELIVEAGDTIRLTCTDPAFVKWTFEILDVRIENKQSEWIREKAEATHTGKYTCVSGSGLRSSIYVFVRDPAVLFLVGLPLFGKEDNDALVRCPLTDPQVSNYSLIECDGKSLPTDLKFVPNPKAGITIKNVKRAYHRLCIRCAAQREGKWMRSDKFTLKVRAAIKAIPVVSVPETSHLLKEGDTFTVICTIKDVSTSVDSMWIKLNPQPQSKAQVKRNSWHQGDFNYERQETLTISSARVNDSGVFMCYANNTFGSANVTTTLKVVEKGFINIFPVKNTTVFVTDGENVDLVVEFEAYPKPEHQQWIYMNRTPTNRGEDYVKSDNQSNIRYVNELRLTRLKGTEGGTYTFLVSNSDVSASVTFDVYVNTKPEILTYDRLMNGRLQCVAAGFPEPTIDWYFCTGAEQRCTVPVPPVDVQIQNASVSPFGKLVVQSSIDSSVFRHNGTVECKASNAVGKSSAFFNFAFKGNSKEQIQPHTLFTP

B1: DMS5071 (humanized 5-51 VH/4-1 Vk MLC mAb-DOM28m-007) (bispecific antibody, human IgG1, kappa)
heavy: EVQLVQSGAEVKKPGESLKISCKGSGYSFTTYWIHWVRQMPGKGLEWMGAIYPGDGDTRYTQNFKDQVTISADKSISTAYLQWSSLKASDTAMYYCAREGTPPFTTATFAMAYWGQGTLVTVSS[in this place human IgG1 constant region]STGEVQLLESGGGLVQPGGSLRLSCAASGFTFSNYAMGWVRQAPGKGLEWVSSISSSGFATYYADSVKGRFTISRDNSKNTLYLQMNSLRAEDTAVYYCAKSESRTFKAFDYWGQGTLVTVSS
light: DIVMTQSPDSLAVSLGERATINCKSSQSLLYSRTRKNYLAWYQQKPGQPPKLLIYWASTRQSGVPDRFSGSGSGTDFTLTISSLQAEDVAVYYCKQSYNLFTFGQGTKLEIKRTVAAPSVFIFPPSDEQLKSGTASVVCLLNNFYPREAKVQWKVDNALQSGNSQESVTEQDSKDSTYSLSSTLTLSKADYEKHKVYACEVTHQGLSSPVTKSFNRGEC
notes: human IgG1, dAb at heavy chain C-terminus; also called DM5071
Top counts [1]: 67800 counts
S:N @ ULOQ [2]: 811
s:N @ LLOQ [2]: 1.8
Kd [3]: 4000 nM
Kd [4]: 5000 nM
Kd [5]: 13 nM

B2: DMS5073 (humanized 5-51 VH/4-1 Vk MLC mAb-DOM28m-023) (bispecific antibody, human IgG1, kappa)
heavy: EVQLVQSGAEVKKPGESLKISCKGSGYSFTTYWIHWVRQMPGKGLEWMGAIYPGDGDTRYTQNFKDQVTISADKSISTAYLQWSSLKASDTAMYYCAREGTPPFTTATFAMAYWGQGTLVTVSS[in this place human IgG1 constant region]STGEVRLLESGGGLVQPGGSLRLSCAASGFTFRDYVMVWVRQAPGKGLEWVSAIAPTGGYTYYADSVKGRFTISRDNSKNTLYLQMNSLRAEDTAVYYCAKSLRTWLSEDLPFDYWGQGTLVTVSS
light: DIVMTQSPDSLAVSLGERATINCKSSQSLLYSRTRKNYLAWYQQKPGQPPKLLIYWASTRQSGVPDRFSGSGSGTDFTLTISSLQAEDVAVYYCKQSYNLFTFGQGTKLEIKRTVAAPSVFIFPPSDEQLKSGTASVVCLLNNFYPREAKVQWKVDNALQSGNSQESVTEQDSKDSTYSLSSTLTLSKADYEKHKVYACEVTHQGLSSPVTKSFNRGEC
notes: human IgG1, dAb at heavy chain C-terminus
Top counts [1]: 170 counts
S:N @ ULOQ [2]: 2.9
s:N @ LLOQ [2]: 2
Kd [5]: 12 nM
binding result [6]: no binding (tested: 1 uM)

B3: DMS5074 (humanized 5-51 VH/4-1 Vk MLC mAb-DOM28m-104) (bispecific antibody, human IgG1, kappa)
heavy: EVQLVQSGAEVKKPGESLKISCKGSGYSFTTYWIHWVRQMPGKGLEWMGAIYPGDGDTRYTQNFKDQVTISADKSISTAYLQWSSLKASDTAMYYCAREGTPPFTTATFAMAYWGQGTLVTVSS[in this place human IgG1 constant region]STGEVQLLESGGGLVQPGGSLRLSCAASGFTFSHYNMCWVRQAPGKGLEWVSGISPNGSSTYYADSVKGRFTISRDNSKNTLYLQMNSLRAEDTAVYYCAKQCLGHTRVFDYWGQGTLVTVSS
light: DIVMTQSPDSLAVSLGERATINCKSSQSLLYSRTRKNYLAWYQQKPGQPPKLLIYWASTRQSGVPDRFSGSGSGTDFTLTISSLQAEDVAVYYCKQSYNLFTFGQGTKLEIKRTVAAPSVFIFPPSDEQLKSGTASVVCLLNNFYPREAKVQWKVDNALQSGNSQESVTEQDSKDSTYSLSSTLTLSKADYEKHKVYACEVTHQGLSSPVTKSFNRGEC
notes: as for B2
Top counts [1]: 18200 counts
S:N @ ULOQ [2]: 199
s:N @ LLOQ [2]: 1.5
Kd [5]: 13 nM
binding result [6]: no binding (tested: 1 uM)

B4: DMS5077 (humanized 5-51 VH/4-1 Vk MLC mAb-DOM28m-112) (bispecific antibody, human IgG1, kappa)
heavy: EVQLVQSGAEVKKPGESLKISCKGSGYSFTTYWIHWVRQMPGKGLEWMGAIYPGDGDTRYTQNFKDQVTISADKSISTAYLQWSSLKASDTAMYYCAREGTPPFTTATFAMAYWGQGTLVTVSS[in this place human IgG1 constant region]STGEVQLLESGGGLVQPGGSLRLSCAASGFTFKVEDMGWVRQAPGKGLEWVSIIDSPGIGTYYADSVKGRFTISRDNSKNTLYLQMNSLRAEDTAVYYCAKWNFDSNQFDYWGQGTLVTVSS
light: DIVMTQSPDSLAVSLGERATINCKSSQSLLYSRTRKNYLAWYQQKPGQPPKLLIYWASTRQSGVPDRFSGSGSGTDFTLTISSLQAEDVAVYYCKQSYNLFTFGQGTKLEIKRTVAAPSVFIFPPSDEQLKSGTASVVCLLNNFYPREAKVQWKVDNALQSGNSQESVTEQDSKDSTYSLSSTLTLSKADYEKHKVYACEVTHQGLSSPVTKSFNRGEC
notes: as for B2
Top counts [1]: 1170 counts
S:N @ ULOQ [2]: 12.8
s:N @ LLOQ [2]: 12.8
Kd [5]: 8 nM
binding result [6]: no binding (tested: 1 uM)

B5: DMS5102 (humanized 5-51 VH/4-1 Vk MLC mAb-DOM28h-94-11) (bispecific antibody, human IgG1, kappa)
heavy: EVQLVQSGAEVKKPGESLKISCKGSGYSFTTYWIHWVRQMPGKGLEWMGAIYPGDGDTRYTQNFKDQVTISADKSISTAYLQWSSLKASDTAMYYCAREGTPPFTTATFAMAYWGQGTLVTVSS[in this place human IgG1 constant region]STGEVQPLESGGGLVQPGGSLRLSCAVSGFTFFPYAMGWVRQAPGKGLEWVSFISGRGDTTYYADSVKGRFTISRDNSKNTLYLQMNSLRAEDTAVYYCAKTATSDLWNFDYRGQGTLVTVSS
light: DIVMTQSPDSLAVSLGERATINCKSSQSLLYSRTRKNYLAWYQQKPGQPPKLLIYWASTRQSGVPDRFSGSGSGTDFTLTISSLQAEDVAVYYCKQSYNLFTFGQGTKLEIKRTVAAPSVFIFPPSDEQLKSGTASVVCLLNNFYPREAKVQWKVDNALQSGNSQESVTEQDSKDSTYSLSSTLTLSKADYEKHKVYACEVTHQGLSSPVTKSFNRGEC
notes: as for B2
Top counts [1]: 300000 counts
S:N @ ULOQ [2]: 4320
s:N @ LLOQ [2]: 29.6
Kd [7]: 290 nM
Kd [8]: 125 nM
Kd [9]: 5 nM

B6: DMS5078 (humanized 5-51 VH/4-1 Vk MLC mAb-DOM28h-094) (bispecific antibody, human IgG1, kappa)
heavy: EVQLVQSGAEVKKPGESLKISCKGSGYSFTTYWIHWVRQMPGKGLEWMGAIYPGDGDTRYTQNFKDQVTISADKSISTAYLQWSSLKASDTAMYYCAREGTPPFTTATFAMAYWGQGTLVTVSS[in this place human IgG1 constant region]STGEVQLLESGGGLVQPGGSLRLSCAASGFTFFPYAMGWVRQAPGKGLEWVSFISGRGDTTYYADSVKGRFTISRDNSKNTLYLQMNSLRAEDTAVYYCAKTATSDLWNFDYWGQGTLVTVSS
light: DIVMTQSPDSLAVSLGERATINCKSSQSLLYSRTRKNYLAWYQQKPGQPPKLLIYWASTRQSGVPDRFSGSGSGTDFTLTISSLQAEDVAVYYCKQSYNLFTFGQGTKLEIKRTVAAPSVFIFPPSDEQLKSGTASVVCLLNNFYPREAKVQWKVDNALQSGNSQESVTEQDSKDSTYSLSSTLTLSKADYEKHKVYACEVTHQGLSSPVTKSFNRGEC
notes: as for B2
Top counts [1]: 100000 counts
S:N @ ULOQ [2]: 958
s:N @ LLOQ [2]: 5.8
Kd [3]: 1000 nM
Kd [5]: 10 nM

B7: DMS5103 (humanized 5-51 VH/4-1 Vk MLC mAb-DOM28h-94-13) (bispecific antibody, human IgG1, kappa)
heavy: EVQLVQSGAEVKKPGESLKISCKGSGYSFTTYWIHWVRQMPGKGLEWMGAIYPGDGDTRYTQNFKDQVTISADKSISTAYLQWSSLKASDTAMYYCAREGTPPFTTATFAMAYWGQGTLVTVSS[in this place human IgG1 constant region]STGEVQPLESGGGLVQPGGSLRLSCAVSGFTIFPYAMGWVRQAPGKGLEWVSFISGRGDTTYYADSVKGRFTISRDNSKNTLYLQMNSLRAEDTAVYYCAKTATSDLWNFDYRGQGTLVTVSS
light: DIVMTQSPDSLAVSLGERATINCKSSQSLLYSRTRKNYLAWYQQKPGQPPKLLIYWASTRQSGVPDRFSGSGSGTDFTLTISSLQAEDVAVYYCKQSYNLFTFGQGTKLEIKRTVAAPSVFIFPPSDEQLKSGTASVVCLLNNFYPREAKVQWKVDNALQSGNSQESVTEQDSKDSTYSLSSTLTLSKADYEKHKVYACEVTHQGLSSPVTKSFNRGEC
notes: as for B2
Top counts [1]: 300000 counts
S:N @ ULOQ [2]: 5430
s:N @ LLOQ [2]: 41.9
Kd [7]: 74 nM
Kd [8]: 30 nM
Kd [9]: 4 nM

B8: DMS5104 (humanized 5-51 VH/4-1 Vk MLC mAb-DOM28h-94-14) (bispecific antibody, human IgG1, kappa)
heavy: EVQLVQSGAEVKKPGESLKISCKGSGYSFTTYWIHWVRQMPGKGLEWMGAIYPGDGDTRYTQNFKDQVTISADKSISTAYLQWSSLKASDTAMYYCAREGTPPFTTATFAMAYWGQGTLVTVSS[in this place human IgG1 constant region]STGEVQLLESGGGLVQPGGSLRLSCAVSGFTIFPYAMGWVRQAPGKGLEWVSFISGRGDTTYYADSVKGRFTISRDNSKNTLYLQMNSLRAEDTAVYYCAKTATSDLWNFDYWGQGTLVTVSS
light: DIVMTQSPDSLAVSLGERATINCKSSQSLLYSRTRKNYLAWYQQKPGQPPKLLIYWASTRQSGVPDRFSGSGSGTDFTLTISSLQAEDVAVYYCKQSYNLFTFGQGTKLEIKRTVAAPSVFIFPPSDEQLKSGTASVVCLLNNFYPREAKVQWKVDNALQSGNSQESVTEQDSKDSTYSLSSTLTLSKADYEKHKVYACEVTHQGLSSPVTKSFNRGEC
notes: as for B2
Top counts [1]: 200000 counts
S:N @ ULOQ [2]: 4490
s:N @ LLOQ [2]: 42.3
Kd [7]: 1000 nM
Kd [8]: 5000 nM
Kd [9]: 5 nM

B9: DMS5105 (humanized 5-51 VH/4-1 Vk MLC mAb-DOM28h-94-15) (bispecific antibody, human IgG1, kappa)
heavy: EVQLVQSGAEVKKPGESLKISCKGSGYSFTTYWIHWVRQMPGKGLEWMGAIYPGDGDTRYTQNFKDQVTISADKSISTAYLQWSSLKASDTAMYYCAREGTPPFTTATFAMAYWGQGTLVTVSS[in this place human IgG1 constant region]STGEVQPLESGGGLVQPGGSLRLSCAASGFTVFPYAMGWVRQAPGKGLEWVSFISGRGDTTYYADSVKGRFTISRDNSKNTLYLQMNSLRAEDTAVYYCAKTATSDLWNFDYRGQGTLVTVSS
light: DIVMTQSPDSLAVSLGERATINCKSSQSLLYSRTRKNYLAWYQQKPGQPPKLLIYWASTRQSGVPDRFSGSGSGTDFTLTISSLQAEDVAVYYCKQSYNLFTFGQGTKLEIKRTVAAPSVFIFPPSDEQLKSGTASVVCLLNNFYPREAKVQWKVDNALQSGNSQESVTEQDSKDSTYSLSSTLTLSKADYEKHKVYACEVTHQGLSSPVTKSFNRGEC
notes: as for B2
Top counts [1]: 300000 counts
S:N @ ULOQ [2]: 4730
s:N @ LLOQ [2]: 31.4
Kd [7]: 79 nM
Kd [8]: 49 nM
Kd [9]: 7 nM
